# Test results as given in the supplement of paper PMC8728848.
# The list shows a part of the results.
# Legend:
# Experiment in all cases: glycan array binding signal (z-score within array); higher = stronger binding
# Settings in all cases: glycan notation: IUPAC condensed, linker removed
# [1] = biological target: Neu5Ac(a2-8)Neu5Ac
# Procedure, shortened: (§1)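 Glycan array data came from 3228 arrays in the Consortium for Functional Glycomics database, and only arrays with an available protein sequence were kept. Glycan names were put into IUPAC-condensed notation, and columns mapping to the same glycan were averaged. The binding signal is a within-array Z-score, averaged across arrays of one protein sequence run at different concentrations or buffers and across linkers. A negative Z-score can be read as non-binding.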
# [2] = biological target: Neu5Ac(a2-8)Neu5Ac(a2-3)Gal(b1-3)GalNAc(b1-4)[Neu5Ac(a2-3)]Gal(b1-4)Glc
# Procedure, shortened: as §1
# [3] = biological target: Neu5Ac(a2-8)Neu5Ac(a2-3)Gal(b1-3)GalNAc(b1-4)[Neu5Ac(a2-8)Neu5Ac(a2-3)]Gal(b1-4)Glc
# Procedure, shortened: as §1
# [4] = biological target: Neu5Ac(a2-8)Neu5Ac(a2-3)Gal(b1-4)Glc
# Procedure, shortened: as §1
# [5] = biological target: Neu5Ac(a2-8)Neu5Ac(a2-3)Gal(b1-4)GlcNAc
# Procedure, shortened: as §1
# [6] = biological target: Neu5Ac(a2-8)Neu5Ac(a2-3)[Gal(b1-3)GalNAc(b1-4)]Gal(b1-4)Glc
# Procedure, shortened: as §1
# [7] = biological target: Neu5Ac(a2-8)Neu5Ac(a2-3)[GalNAc(b1-4)]Gal(b1-4)Glc
# Procedure, shortened: as §1
# [8] = biological target: Neu5Ac(a2-8)Neu5Ac(a2-8)Neu5Ac
# Procedure, shortened: as §1
# [9] = biological target: Neu5Ac(a2-8)Neu5Ac(a2-8)Neu5Ac(a2-3)Gal(b1-4)Glc
# Procedure, shortened: as §1
# [10] = biological target: Neu5Ac(a2-8)Neu5Ac(a2-8)Neu5Ac(a2-3)[Gal(b1-3)GalNAc(b1-4)]Gal(b1-4)Glc
# Procedure, shortened: as §1
# [11] = biological target: Neu5Ac(a2-8)Neu5Ac(a2-8)Neu5Ac(a2-3)[GalNAc(b1-4)]Gal(b1-4)Glc
# Procedure, shortened: as §1
# [12] = biological target: Neu5Ac(a2-8)Neu5Ac(a2-8)Neu5Ac(a2-8)Neu5Ac(a2-3)[GalNAc(b1-4)]Gal(b1-4)Glc
# Procedure, shortened: as §1
# [13] = biological target: Neu5Ac(a2-8)Neu5Gc(a2-3)Gal(b1-4)GlcNAc
# Procedure, shortened: as §1
# [14] = biological target: Neu5Ac(b2-6)Gal(b1-4)GlcNAc
# Procedure, shortened: as §1
# [15] = biological target: Neu5Ac(b2-6)GalNAc
# Procedure, shortened: as §1
# [16] = biological target: Neu5Ac9Ac(a2-3)Gal(b1-3)GlcNAc
# Procedure, shortened: as §1
# [17] = biological target: Neu5Ac9Ac(a2-3)Gal(b1-4)GlcNAc
# Procedure, shortened: as §1
# [18] = biological target: Neu5Ac9Ac(a2-6)Gal(b1-4)GlcNAc
# Procedure, shortened: as §1
# [19] = biological target: Neu5Gc(a2-3)Gal(b1-3)GlcNAc
# Procedure, shortened: as §1
# [20] = biological target: Neu5Gc(a2-3)Gal(b1-3)[Fuc(a1-4)]GlcNAc
# Procedure, shortened: as §1
# [21] = biological target: Neu5Gc(a2-3)Gal(b1-4)Glc
# Procedure, shortened: as §1
# [22] = biological target: Neu5Gc(a2-3)Gal(b1-4)GlcNAc
# Procedure, shortened: as §1
# [23] = biological target: Neu5Gc(a2-3)Gal(b1-4)GlcNAc(b1-3)Gal(b1-4)GlcNAc(b1-2)Man(a1-3)[Neu5Gc(a2-3)Gal(b1-4)GlcNAc(b1-3)Gal(b1-4)GlcNAc(b1-2)Man(a1-6)]Man(b1-4)GlcNAc(b1-4)GlcNAc
# Procedure, shortened: as §1
# [24] = biological target: Neu5Gc(a2-3)Gal(b1-4)[Fuc(a1-3)]GlcNAc
# Procedure, shortened: as §1
# [25] = biological target: Neu5Gc(a2-6)Gal(b1-4)GlcNAc
# Procedure, shortened: as §1
# [26] = biological target: Neu5Gc(a2-6)GalNAc
# Procedure, shortened: as §1
# [27] = biological target: Neu5Gc(a2-8)Neu5Ac(a2-3)Gal(b1-4)GlcNAc
# Procedure, shortened: as §1
# [28] = biological target: Neu5Gc(a2-8)Neu5Gc(a2-3)Gal(b1-4)GlcNAc
# Procedure, shortened: as §1
# [29] = biological target: Neu5Gc(a2-8)Neu5Gc(a2-3)Gal(b1-4)GlcNAc(b1-3)Gal(b1-4)GlcNAc
# Procedure, shortened: as §1
# [30] = biological target: Neu5Gc(a2-8)Neu5Gc(a2-6)Gal(b1-4)GlcNAc
# Procedure, shortened: as §1
# [31] = biological target: Neu5Gc(b2-6)Gal(b1-4)GlcNAc
# Procedure, shortened: as §1
binder,measurement,setting,value
"Arath Fbox (Arabidopsis thaliana), NP_178341.1 (protein) EFTWGRKRRVKSESSPFDSFPEDCISYIISFTNPRDACVAATVSKTFESTVKSDIIWEKFLPADYESLIPPSRVFSSKKELYFSLCNDPVLFDDDKKSVWLEKASGKRCLMLSAMNLSIIWGDNPQYWQWIPIPESRFEKVAKLRDVCWFEIRGRTNTRVLSPRTRYSAYIVFKGVDKCYGFQNVAIEAAVGVVGQEPSRRLICFSEAIRRGRRNVVKPKQREDGWMEIELGEFFNDGGIMDNDEIEMSALETKQLNRKCGLIIQGIEIRPAKILAAAAASFLEQKLISEEDLNSAVDHHHHHH",glycan array binding signal (z-score),[1],-0.615
same,glycan array binding signal (z-score),[2],-0.685
same,glycan array binding signal (z-score),[3],0.378
same,glycan array binding signal (z-score),[4],-0.582
same,glycan array binding signal (z-score),[5],-0.583
same,glycan array binding signal (z-score),[6],0.298
same,glycan array binding signal (z-score),[7],-0.467
same,glycan array binding signal (z-score),[8],-0.611
same,glycan array binding signal (z-score),[9],-0.675
same,glycan array binding signal (z-score),[10],-0.683
same,glycan array binding signal (z-score),[11],-0.245
same,glycan array binding signal (z-score),[12],0.574
same,glycan array binding signal (z-score),[13],-0.23
same,glycan array binding signal (z-score),[14],0.732
same,glycan array binding signal (z-score),[15],-0.377
same,glycan array binding signal (z-score),[16],0.991
same,glycan array binding signal (z-score),[17],-0.721
same,glycan array binding signal (z-score),[18],-0.681
same,glycan array binding signal (z-score),[19],-0.022
same,glycan array binding signal (z-score),[20],-0.678
same,glycan array binding signal (z-score),[21],0.181
same,glycan array binding signal (z-score),[22],-0.647
same,glycan array binding signal (z-score),[23],1.17
same,glycan array binding signal (z-score),[24],0.522
same,glycan array binding signal (z-score),[25],2.49
same,glycan array binding signal (z-score),[26],1.35
same,glycan array binding signal (z-score),[27],-0.42
same,glycan array binding signal (z-score),[28],-0.063
same,glycan array binding signal (z-score),[29],-0.651
same,glycan array binding signal (z-score),[30],-0.528
same,glycan array binding signal (z-score),[31],2.42
